Screen size: about 420,000 compounds; about 50,000 (12%) were called active. Another 26% or so got no clear call; they are omitted. The call rests on the fitted dose curve; in most records, active means well fitted inhibition curve with a large enough effect; inconclusive means small, poorly fitted or top-dose-only effect; inactive means flat fitted curve, though single readings scatter. This is a selection; strong and weak results do not stand in their true shares. A structure can be active in one record and inactive in another.
Assay: qHTS for Inhibitors of human tyrosyl-DNA phosphodiesterase 1 (TDP1): qHTS in cells in presence of CPT; further: nearly all actives have a fitted effect of over 55% in size
Conditions: chicken DT40 Tdp1-/-;hTDP1 cells + 20 nM CPT, ATP luminescence, 48 h; series mostly up to 46.2 µM; activity change, negative = growth inhibition: at the top concentration
In short: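 Cell growth measured by CellTiter-Glo luminescence after a minimum 48 h, 37 C compound exposure with 20 nM CPT in Tdp1-knockout DT40 cells stably expressing hTDP1, seeded 400/well; qHTS titration format.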
On the % scale 0 is the no-effect control and ±100 the full control effect; potency means the concentration at half of the fitted maximal effect.

| SMILES | activity change, negative = growth inhibition | Potency |
| --- | --- | --- |
| CC(C)C[C@H]1CN(CCCC[C@H]2CNC(=O)C(=O)N2Cc2ccccc2)C(=O)C(=O)N1CCc1ccccc1 | inactive: -0.765% |  |
| Cc1oc(-c2cccc(Cl)c2)nc1CSCC(=O)O |  | active: 16.4 µM |
| CCOC(=O)[C@H](CCc1ccccc1)N[C@@H](C)C(=O)N1Cc2ccccc2C[C@H]1C(=O)O | inactive: -9.56% |  |
| CC(CCc1ccccc1)NCC(O)c1ccc(O)c(C(N)=O)c1 (centres undefined) |  | inactive |
| COc1cccc(-c2ccnc3[nH]n(-c4ccccc4)c(=O)c23)c1 | inactive: -11.1% |  |
| CCCCCC[C@@H]([C@@H](C)O)n1cnc2c(N)ncnc21 |  | inactive |
| Cc1cc(C)nc(NC(=O)CSc2nccc(C)n2)n1 | inactive: -2.86% |  |
| O=S(=O)(c1ccc(N2CCN(Cc3ccccc3)CC2)nc1)N1CCCC1 |  | active: 16.4 µM |
| O=C(C1=C[C@@H](c2ccc(C(F)(F)F)cc2)C[C@@H](OCc2ccc(CO)cc2)O1)N1CCOCC1 | inactive: -9.47% |  |
| Cc1ccc(C(=O)NCC(c2ccc3c(c2)OCO3)N2CCOCC2)cc1C (centres undefined) |  | active: 20.6 µM |
| O=S1(=O)[C@H]2C[C@@H]3C=C[C@@]2(CN1Cc1cccc(Cl)c1)O3 | inactive: 7.44% |  |
| Cc1ccc(N2CCN(C(=O)N3CCOCC3)CC2)cc1C | inactive: 6.24% |  |
| COc1ccc([C@@H]2CC(=O)c3c(O)cc(O[C@@H]4OC(CO[C@@H]5OC(C)[C@H](O)[C@@H](O)[C@H]5O)[C@@H](O)[C@H](O)[C@H]4O)cc3O2)cc1O (some centres undefined) | inactive: 1.74% |  |
| C[C@@H]1CN([C@@H](C)CO)C(=O)CCCn2nncc2CO[C@H]1CN(C)S(=O)(=O)c1ccc(Cl)cc1 | inactive: -6.22% |  |
| CCOCCCNC(=O)c1ccccc1SCC | inactive: -6.22% |  |
| O=C(Nc1cccc(S(=O)(=O)NC2=NCCC2)c1)c1cc(-c2ccccn2)nc2ccccc12 |  | active: 23.1 µM |
| CCCN1C[C@H](CSC)C[C@@H]2c3cccc4[nH]cc(c34)C[C@H]21 |  | inactive |
| CCOC(=O)C[C@H]1c2ccc(C(F)(F)F)cc2S(=O)(=O)N1C(C)C | inactive: -15.9% |  |
| COc1ccccc1N1CCN(c2ccc(N3C(=O)CCC3=O)cc2[N+](=O)[O-])CC1 | inactive: 1.62% |  |
| CCc1ccc2oc(C(=O)Nc3nonc3CC)c(C)c2c1 | inactive: -23.2% |  |
| C=CCOC(=O)C1=C[C@H](c2ccc(C(F)(F)F)cc2)C[C@H](OCCCCO)O1 | inactive: -20.3% |  |
| CCC(CC)C(=O)Nc1cccc(-c2nc3ccccc3s2)c1 |  | active: 20.6 µM |
| Cc1ccc(/C=N/NC(=O)C(C)NC(=O)c2ccccc2)cc1 (centres undefined) | inactive: 26.1% |  |

| SMILES | activity change, negative = growth inhibition | Potency |
| --- | --- | --- |
| Cc1ccc2c(c1)c1c3n2CCN(CC#N)C3CCC1 (centres undefined) | inactive: 36.5% |  |
| C/C(=C\COc1cc(=O)[nH]c2ccccc12)CCC(O)C(C)(C)O (centres undefined) |  | inactive |
| COc1ccc(-c2nnc(S/C(=C/c3ccc(Cl)cc3)C(=O)O)o2)cc1 | inactive: 7.75% |  |
| C[C@@H]1CN([C@@H](C)CO)C(=O)CCCn2nncc2CO[C@@H]1CN(C)C(=O)Nc1ccc(N2CCN(C)CC2)cc1 | inactive: 5.91% |  |
| CCCN(CC(=O)Nc1ccccc1C)C(=O)c1ccc(COc2ccccc2)cc1 |  | active: 23.1 µM |
| Cc1ccc(NC(=O)/C(=C/c2cccc(Br)c2)NC(=O)c2ccco2)cc1 | inactive: -5.05% |  |
| COCC(C)NCc1ccccc1C (centres undefined) | inactive: 14.8% |  |
| Cc1ccc([C@H]2C[C@H](O)[C@@H](n3cc(C4CC4)nn3)CN2C(=O)c2cccs2)cc1 | inactive: -21.1% |  |
| CCOC(=O)c1ccccc1Nc1cn(C(C)=O)c2ccccc12 |  | active: 3.66 µM |
| CCOc1ccccc1C1c2[nH]c3ccccc3c2C[C@H]2C(=O)N(C3CCN(Cc4ccccc4)CC3)CC(=O)N12 (some centres undefined) |  | active: 5.8 µM |
| O=[N+]([O-])c1ccccc1SNc1ccccn1 |  | active: 20.6 µM |
| Oc1c(CN2CCCC(C(F)(F)F)C2)cc(Cl)c2ccccc12 (centres undefined) |  | active: 18.4 µM |
| CCn1c(SCC(=O)NCc2ccco2)nnc1-c1ccc(N)cc1 | inactive: 14.8% |  |
| C[C@H](CO)N1C[C@H](C)[C@@H](CN(C)C(=O)Nc2ccccc2)Oc2c(NC(=O)c3ccncc3)cccc2C1=O | inactive: 36.9% |  |
| CCN(CCCNC(=O)CNC(=O)Cn1cnc2ccccc2c1=O)c1ccccc1 | inactive: 33.9% |  |
| COC(=O)c1ccccc1NC(=O)c1ccc(F)cc1 | inactive: -29.6% |  |
| COc1cc(C(=O)COC(=O)c2ccc3c(c2)OCCO3)cc(OC)c1OC |  | active: 14.6 µM |
| CC1(C)OC2C(CO)OC(n3cnc4c(=O)[nH]cnc43)C2O1 (centres undefined) | inactive: -6.51% |  |
| C[C@H](CO)N1C[C@H](C)[C@@H](CN(C)S(=O)(=O)c2ccccc2)OCc2cnnn2CCCC1=O | inactive: 3.43% |  |
| COc1ccc(NC(=O)CCN2C(=O)C3C4C=CC(C4)C3C2=O)cc1 (centres undefined) | inactive: 10.6% |  |
| Cc1ccc(C2CC(=O)C=C(NCc3ccccc3)C2)cc1 (centres undefined) |  | active: 5.17 µM |
| C[C@@H](N)C1CCC(C(=O)Nc2ccncc2)CC1 (some centres undefined) | inactive: -11.6% |  |
| COc1ccc(CN2[C@@H](CC(=O)O)c3cc(C(F)(F)F)ccc3S2(=O)=O)cc1 | inactive: -19.4% |  |

| SMILES | activity change, negative = growth inhibition | Potency |
| --- | --- | --- |
| COc1ccc(S(=O)(=O)c2c(O)c3ccc(C(=O)Nc4ccccc4Cl)cc3[nH]c2=O)cc1 | inactive: 8.7% |  |
| Cc1[nH]nc(N=CC2=C(O)CC(c3ccco3)CC2=O)c1-c1ccccc1 (centres undefined) | inactive: -2.32% |  |
| Cc1cc(C)cc(NC(=O)Cn2nnc(C(=O)NCc3ccco3)c2N)c1 | inactive: 4.71% |  |
| Nc1nc2nonc2nc1N | inactive: 40.7% |  |
| O=c1[nH]c(C2CCCN(S(=O)(=O)c3ccccc3)C2)nc2c1nnn2Cc1ccc(OC(F)(F)F)cc1 (centres undefined) | inactive: -5.71% |  |
| COc1ccc(NC(=S)Nc2ccccc2)cc1 | inactive: -28% |  |
| COCCNc1nc(NCC2CCCCC2)c2sc(-c3ccccc3)cc2n1 |  | active: 14.6 µM |
| Cc1c(NC(N)=O)c(=O)n(-c2ccccc2)n1C | inactive: 39.5% |  |
| CCCOc1ccc(N2C(=O)CC(NCc3ccc(S(N)(=O)=O)cc3)C2=O)cc1 (centres undefined) | inactive: 40.1% |  |
| C/C(N)=C(/C#N)C(=O)CSc1nnc(Nc2cccc(C)c2)s1 | inactive: -29.8% |  |
| O=C(Cn1c(=O)n(Cc2ccco2)c(=O)c2c3c(sc21)CCCCC3)c1ccccc1 |  | active: 14.6 µM |
| O=C(NC1CCCC1)c1ccc2c(c1)N(Cc1ccc(C(F)(F)F)cc1)C(=O)c1ccccc1S2 |  | active: 20.6 µM |
| COc1ccc(N(CC(=O)NCc2ccc(F)cc2)S(=O)(=O)c2c(C)noc2C)cc1 | inactive: -21.1% |  |
| CC(OC(=O)C1=COCCO1)C(=O)NC1CCCCC1C (centres undefined) | inactive: -6.46% |  |
| Cc1[nH]n(-c2ccccc2)c(=O)c1N=Nc1ccccc1O |  | active: 0.517 µM |
| COc1ccc2c(c1)c(CC(=O)N1CCOCC1)c(C)n2C(=O)c1ccc(Cl)cc1 | inactive: 4.42% [at 4.12 µM] |  |
| CCc1cc(S(N)(=O)=O)cc(CC)c1NC(C)=O | inactive: 38.7% |  |
| CN(C)S(=O)(=O)n1cc(/C=C(\NC(=O)c2ccccc2F)C(=O)NCCCn2ccnc2)c2ccccc21 | inactive: -27.8% |  |
| CCN1C(=O)[C@H]2[C@@H](c3ccc(C(F)(F)F)cc3)N[C@]3(CCCN(Cc4ccc(Br)cc4)C3=O)[C@H]2C1=O |  | active: 13 µM |
| CCN1CCN(C(=O)NC(C(=O)NC2C(=O)N3C2SC(C)(C)C3C(=O)O)c2ccccc2)C(=O)C1=O (centres undefined) | inactive: 6.71% |  |
| Cc1ccc(NC(=O)c2cc(C)nn2-c2ccccc2)cc1 | inactive: -20.2% |  |
| NC[C@@H](O)c1ccc(O)c(O)c1 | inactive: -24.8% |  |
| Clc1ccccc1-c1nc(-c2ccncc2)no1 |  | inactive |

Reference: PubChem BioAssay AID686979 (National Center for Advancing Translational Sciences (NCATS), 2013)
